Out of some 420,000 compounds screened, about 64,000 (15%) were called active. This list was built around the results that the source calls inconclusive (neither active nor inactive); the mix of calls is not that of the screen. The call rests on the fitted dose curve; in most records, active means well fitted inhibition curve with a large enough effect; inconclusive means small, poorly fitted or top-dose-only effect; inactive means flat fitted curve, though single readings scatter. No potency is given beside an inconclusive call; the fits are too rough.
Test: qHTS for Inhibitors of human tyrosyl-DNA phosphodiesterase 1 (TDP1): qHTS in cells in absence of CPT; further: nearly all actives have a fitted effect of over 55% in size
Conditions: DT40 Tdp1-/- hTDP1 cells, no CPT, ATP luminescence, 48 h; series mostly up to 46.2 µM
In short: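 No-CPT arm: Tdp1-/-;hTDP1 DT40 cells (400/well) plus compounds, incubated ≥48 hr at 37 °C. Readout CellTiter-Glo luminescence.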
Potency means the concentration at half of the fitted maximal effect; tags describe the fitted curve by direction and shape.

| Compound | Potency |
| --- | --- |
| CCN(CC)c1ccc(NC(=O)Cn2nc(C)n3cccc3c2=O)c(C)c1 | active: 18.4 µM |
| O=C(NNC(=O)c1csc(-c2cnccc2C(F)(F)F)n1)c1ccc(C(F)(F)F)cc1 | active: 16.4 µM |
| CC(=O)c1cccc(NC(=O)N2CCCC2C(=O)NCc2ccc3c(c2)OCO3)c1 (stereo not drawn) | inactive |
| Cc1nc(-c2ccc(S(=O)(=O)NCc3ccc(N(C)C)cc3)cc2)co1 | inconclusive [inhibitor, partial curve] |
| Cc1ccc2nc(NCc3ccc(F)cc3)c3nncn3c2c1 | inconclusive [inhibitor, partial curve] |
| O=C(Nc1ccc(O)cc1)c1cccc(Oc2ccc([N+](=O)[O-])cc2)c1 | active: 18.4 µM |
| Cc1cc(OC(=O)c2cccc([N+](=O)[O-])c2)c(C)cc1CN1CCOCC1 | inactive |
| Cc1n[nH]c(C)c1CCC(=O)N/N=C/c1cccs1 | inactive |
| Cc1cc(C)n2nc(SCC(=O)N3CCC(C(=O)O)CC3)nc2n1 | inactive |
| COc1ccc(C)cc1NC(=O)CSCc1ccccc1C | inconclusive [inhibitor, single point] |
| CCN(C(=O)COC(=O)C(c1ccccc1)c1ccccc1)c1c(N)n(Cc2ccccc2)c(=O)[nH]c1=O | inconclusive [inhibitor, single point] |
| CC1Cc2cc(S(=O)(=O)N3CCN(c4cccc(Cl)c4)CC3)ccc2N1C(=O)C1CC1 (stereo not drawn) | inconclusive [inhibitor, single point] |
| COc1ccc(-c2nc3n(c(=O)c2C#N)CCS3)cc1 | inactive |
| Cc1ccc2ccccc2[n+]1CCCS(=O)(=O)[O-] | inactive |
| N#Cc1ccc(-c2csc(NC(=O)/C=C/c3cccs3)n2)cc1 | active: 10.3 µM |
| C/C(=N\NC(=O)c1c(Br)c(C)nn1C)c1cccc(NC(=O)C2CCC2)c1 | inconclusive [inhibitor, partial curve] |
| O=S(=O)(NCc1nnc2n1CCN(Cc1ccccc1Cl)CC2)c1ccccc1 | inconclusive [inhibitor, partial curve] |
| COc1cc2c(C#CCCCO)c(-c3ccc(C#N)cc3)oc(=O)c2cc1OC | inactive |
| CC(=O)NC(CC(=O)Nc1cccc(S(=O)(=O)N2CCCCC2)c1)c1ccccc1 (stereo not drawn) | inconclusive [inhibitor, single point] |
| Cc1nc(-c2ccc(F)cc2)c(CC(=O)N(C)CC(=O)Nc2ccc(Cl)c(C(F)(F)F)c2)s1 | inconclusive [inhibitor, single point] |
| CCN(CC)C(=O)c1sc(NC(=O)Cc2ccc(OC)cc2)c(C#N)c1C | inconclusive [inhibitor, partial curve] |
| CCO[C@@H]1OC(C(=O)N2CCN(Cc3ccccc3)CC2)=C[C@H](c2csc3ccccc23)[C@H]1CCCO | active: 29.1 µM |
| O=C(CN1CCCc2ccccc21)NCCc1ccc(F)cc1 | inconclusive [inhibitor, single point] |
| O=C1OCCN1C(=O)[C@H]1[C@H](c2ccc(Cl)cc2)C(c2ccc(F)cc2)=NN1c1ccc(Br)cc1 | inconclusive [inhibitor, single point] |
| CC1CCN(Cc2c(C(=O)N/N=C/c3ccc(C(F)(F)F)cc3)nnn2-c2nonc2N)CC1 | inconclusive [inhibitor, single point] |

| Compound | Potency |
| --- | --- |
| COc1ccc(C(=O)NC(=S)Nc2ccc(N3CCN(C(C)=O)CC3)cc2)cc1[N+](=O)[O-] | inconclusive [inhibitor, partial curve] |
| CC(=O)Nc1ncc(Cc2cc(Cl)ccc2Cl)s1 | inconclusive [inhibitor, single point] |
| COc1ccc([C@H]2CC(=O)C=C(c3cccc(C(F)(F)F)c3)C2)cc1 | inactive |
| O=C(N/N=C/c1c[nH]c2c1ccc1ccccc12)c1ccc([N+](=O)[O-])cc1 | inactive |
| Cc1nn(C(C)C(=O)NCCCN2CCCCCC2)c(=O)c2c1sc1ccccc12 (stereo not drawn) | inconclusive [inhibitor, single point] |
| COC(=O)c1cc(C(=O)N2CCN(c3cccc(Cl)c3)CC2)cc([N+](=O)[O-])c1 | active: 0.92 µM |
| Cc1ccc(Nc2nnc(SCC(=O)Nc3ncc(S(=O)(=O)c4ccc([N+](=O)[O-])cc4)s3)s2)cc1 | inconclusive [inhibitor, single point] |
| CCCc1nc2c3ccccc3ccn2c1Cc1ccccc1C(F)(F)F | inconclusive [inhibitor, single point] |
| Cc1cc(Cl)ccc1C(=O)C1CCCN(C(=O)c2n[nH]c3c2CCCC3)C1 (stereo not drawn) | inconclusive [inhibitor, single point] |
| COC(=O)Nc1nc(C)c(C(=O)c2ccccc2)s1 | active: 11.6 µM |
| CCc1ccc(CNCc2c(C(=O)O)n(Cc3ccc(F)cc3Cl)c3cc(OC)ccc23)cc1 | inconclusive [inhibitor, partial curve, poor fit] |
| CCC(C)(C)NC(=O)C1c2ccccc2Oc2ccccc21 | inactive |
| Cc1ccnc(NC(=O)C2CCN(S(=O)(=O)c3ccc4c(c3)CC(C)N4C(=O)C3CCC3)CC2)c1 (stereo not drawn) | inconclusive [inhibitor, single point] |
| CCC(C)NC(=O)c1cc2c(=O)n3cccc(C)c3nc2s1 (stereo not drawn) | inactive |
| COc1cc2ccccc2cc1C(=O)N1CCN(c2nc3ccc(F)cc3s2)CC1 | active: 14.6 µM |
| Cc1ccc(C)c(Cn2c(=O)n(CCCC(=O)NCc3ccco3)c(=O)c3ccccc32)c1 | inconclusive [inhibitor, single point] |
| CCN(CC(=O)NCc1ccc(Cl)cc1)C(=O)CSCC(=O)Nc1ccc(OC)cc1 | inactive |
| CSc1c[n+]2c(n1C)CCC2 | inactive |
| Cc1cc(C)c(C(=O)/C=C/c2ccc3c(c2)OCO3)c(=O)[nH]1 | inconclusive [inhibitor, single point] |
| CCn1cc(/C=N/NS(=O)(=O)c2ccc(C)cc2)c(C)n1 | inactive |
| Cn1c(SCc2ccccc2F)nnc1-c1ccccn1 | inconclusive [inhibitor, single point] |
| O=C(OCC(=O)c1ccccc1Cl)c1cnccn1 | inconclusive [inhibitor, single point] |
| Cc1cccc(CNc2ncnc3ccc(-c4ccc(C(=O)N(C)C)cc4)cc23)c1 | active: 25.9 µM |
| COc1ccc(-c2nc(NC(=O)CSc3nnc4ccccn34)ns2)cc1 | inconclusive [inhibitor, partial curve] |
| CC1(C)CC(=O)C=C(C(=O)N2CCCC(C(=O)c3cccc(Cl)c3)C2)O1 (stereo not drawn) | inconclusive [inhibitor, single point] |

| Compound | Potency |
| --- | --- |
| Cn1c(=O)[nH]c(=O)c2c1nc(N1CCN(Cc3ccccc3)CC1)n2CCSc1ncccn1 | inconclusive [inhibitor, single point] |
| COC(=O)CSc1nnc(-c2ccc(S(=O)(=O)NCc3ccccc3Cl)cc2)o1 | inconclusive [inhibitor, single point] |
| CCOC(=O)[C@]12CCC=C1N(Cc1ccc3c(c1)OCO3)C(=O)[C@H](CC(=O)N1CCC(c3ccccc3)CC1)C2 | active: 16.4 µM |
| O=C(N/N=C1/CCSC1)c1cccc([N+](=O)[O-])c1 | inactive |
| Cc1ccc(Cn2ccc(NC(=O)c3cc(C(C)C)on3)n2)cc1 | inconclusive [inhibitor, single point] |
| c1cc2ccc3ccc(CN4CCOCC4)c4ccc(c1)c2c34 | inconclusive [inhibitor, single point] |
| O=C(N/N=C/c1c(O)ccc2ccccc12)c1ccc[n+](CCO)c1 | inconclusive [inhibitor, single point] |
| O=C(CN1C(=O)COc2ccc(S(=O)(=O)N3CCCCC3)cc21)NCc1ccc(Cl)cc1 | inconclusive [inhibitor, single point] |
| COc1ccc(OC)c(/C=C/c2cc3ccccc3c[n+]2C)c1 | active: 2 µM |
| CN(C(=O)c1cc2c(s1)-c1ccc(Cl)cc1SC2)c1cccc(C(F)(F)F)c1 | active: 16.4 µM |
| CCN(CC(=O)N1CCc2ccccc2C1)S(=O)(=O)c1ccc2ccccc2c1 | inconclusive [inhibitor, single point] |
| CSc1nc(C)nc(C2CC2)c1C#N | inactive |
| CC1(Cc2ccc(OC(F)(F)F)cc2)C(=O)Nc2c(Cl)ccc(Cl)c21 (stereo not drawn) | inconclusive [inhibitor, single point] |
| COc1cc2c(cc1OC)C(c1ccccc1O)NCC2 (stereo not drawn) | inactive |
| CSCCC(NS(=O)(=O)c1ccc2c(c1)oc(=O)n2C)C(=O)N1CCN(c2cccc(Cl)c2)CC1 (stereo not drawn) | active: 20.6 µM |
| COc1cccc(C#Cc2c(C=O)n(C)c3ccccc23)c1 | active: 16.4 µM |
| COc1cc(NC(=O)CCc2c(C)nc3nc(C)nn3c2C)cc(OC)c1 | inactive |
| COCCCNC(=O)CC(NS(=O)(=O)c1ccc(F)cc1)c1ccc(OC)cc1 (stereo not drawn) | inactive |
| O=C(CCNS(=O)(=O)c1cccc2nonc12)Nc1ccc(Cl)cc1 | inactive |
| CC1CCCCC12NC(=O)N(CC(=O)N1CCN(S(=O)(=O)/C=C/c3ccccc3)CC1)C2=O (stereo not drawn) | inactive |
| O=c1[nH]ncc(N/N=C/c2ccccc2)c1Cl | inactive |
| FC(F)(F)c1cccc(NC(=S)NC(c2ccccc2)c2ccccc2)c1 | active: 5.17 µM |
| COC(=O)c1cc(=O)n(Cc2ccc3c(c2)OCO3)c(=Nc2ccc(F)cc2)s1 | inconclusive [inhibitor, single point] |

From PubChem BioAssay AID686978 (National Center for Advancing Translational Sciences (NCATS), 2013)
